The whole screen tested about 390,000 compounds, of which about 17,000 (4.4%) were called active. Inconclusive results, whose numbers are uncertain, are shown with a selection of clear calls. Calls come from the whole dose curve; as a rule, active = well fitted inhibition curve with a large enough effect; inconclusive = small, poorly fitted or top-dose-only effect; inactive = no such curve, though single readings can be large or run the other way. Where the call is inconclusive, the potency comes from a doubtful curve fit.
Target: Lysine-specific demethylase 4A (Homo sapiens) (UniProt O75164)
Experiment: qHTS Assay for Inhibitors of JMJD2A-Tudor Domain; note: nearly all actives have a fitted effect of over 50% in size
Details: AlphaScreen JMJD2A-Tudor / H3K4me3 peptide binding; activity change, negative = inhibition: at 114 µM (top of the series)
% is set by controls: 0 for no effect and ±100 for the full control effect; potency is the fitted concentration of half-maximal effect; tags give direction and shape of the fitted curve.

UniProt O75164, sequence (O75164 whole entry, looked up, the tested form may be a part): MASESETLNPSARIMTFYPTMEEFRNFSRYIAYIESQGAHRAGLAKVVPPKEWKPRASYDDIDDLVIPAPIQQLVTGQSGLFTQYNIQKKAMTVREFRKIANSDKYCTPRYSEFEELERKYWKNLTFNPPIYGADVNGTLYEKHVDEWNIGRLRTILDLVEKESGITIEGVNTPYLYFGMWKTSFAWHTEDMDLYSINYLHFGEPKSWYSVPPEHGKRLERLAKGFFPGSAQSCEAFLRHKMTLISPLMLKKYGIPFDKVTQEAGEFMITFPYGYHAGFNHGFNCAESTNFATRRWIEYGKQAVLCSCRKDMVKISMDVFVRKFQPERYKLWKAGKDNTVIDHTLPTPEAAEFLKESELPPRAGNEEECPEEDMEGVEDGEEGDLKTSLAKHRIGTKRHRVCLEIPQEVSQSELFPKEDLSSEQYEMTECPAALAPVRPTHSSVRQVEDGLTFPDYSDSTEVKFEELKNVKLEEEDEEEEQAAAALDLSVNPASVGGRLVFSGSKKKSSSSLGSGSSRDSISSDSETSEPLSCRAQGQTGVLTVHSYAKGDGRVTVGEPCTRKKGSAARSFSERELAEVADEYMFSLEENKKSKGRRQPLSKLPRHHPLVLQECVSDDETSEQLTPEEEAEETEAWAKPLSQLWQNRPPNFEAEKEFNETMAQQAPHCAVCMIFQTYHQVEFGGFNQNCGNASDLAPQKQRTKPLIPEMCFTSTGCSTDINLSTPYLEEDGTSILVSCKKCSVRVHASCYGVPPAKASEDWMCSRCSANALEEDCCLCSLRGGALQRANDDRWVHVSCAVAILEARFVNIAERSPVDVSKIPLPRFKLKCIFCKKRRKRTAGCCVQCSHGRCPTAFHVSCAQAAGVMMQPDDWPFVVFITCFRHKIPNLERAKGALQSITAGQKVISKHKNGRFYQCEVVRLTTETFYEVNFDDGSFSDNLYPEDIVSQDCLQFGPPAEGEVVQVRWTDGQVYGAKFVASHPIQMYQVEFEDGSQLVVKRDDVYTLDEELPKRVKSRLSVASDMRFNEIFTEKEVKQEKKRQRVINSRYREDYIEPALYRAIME

Potency, active:
O=C(Nc1ccc(N2CCCCCC2)cc1)c1ccc[nH]1 50.1 µM
CCOc1cccc(C2C(C(=O)c3ccc(C)o3)=C(O)C(=O)N2c2nnc(C)s2)c1 (stereo not given) 1.12 µM
CCN(CC)c1ccc(NC(=O)c2cccc(C)c2OC)c(C)c1 39.8 µM
CC(=O)N1/C(=C/c2ccc(N(C)C)cc2)C(=O)c2ccccc21 17.8 µM
c1ccc(C(c2nnnn2C2CCCC2)N2CCCCCC2)nc1 (stereo not given) 50.1 µM

Potency, inconclusive:
NC(=O)c1cccc(C[C@H](C(=O)O)N2C(=O)c3ccc(C(=O)O)cc3C2=O)c1 89.1 µM [inhibitor, single point]
O=C1c2ccccc2C(Nc2cccc(C(F)(F)F)c2)N1Cc1ccco1 (stereo not given) 79.4 µM [inhibitor, partial curve]
COC(=O)CCCCCNc1ccc(C(=O)OC)cc1N 63.1 µM [inhibitor, partial curve, poor fit]
O=C1C(Cc2ccccc2)Nc2ncnc(N3CCCCC3)c2N1Cc1ccccc1 (stereo not given) 89.1 µM [inhibitor, partial curve]
CSc1cccc(-n2c(C)cc(C(N)=O)c2C)c1 79.4 µM [inhibitor, partial curve]
O=C(Cn1ncc2c3ccccc3n(Cc3cccc(Cl)c3)c2c1=O)NC1CCCCCC1 79.4 µM [inhibitor, partial curve]
CCn1c(/C=C2\C(=O)N(C)c3ccccc32)nc2ccccc2c1=O 17.8 µM [inhibitor, full curve, poor fit]
Cc1cc(NC(=O)COC(=O)c2cc([N+](=O)[O-])ccc2N2CCOCC2)ccc1Br 25.1 µM [inhibitor, full curve]
CN(C)CCNC(=O)c1coc(=O)c(Br)c1 44.7 µM [inhibitor, partial curve, poor fit]
Cc1c(C(=O)N2CCN(c3cccc(Cl)c3)CC2)cccc1[N+](=O)[O-] 10 µM [inhibitor, partial curve]

Potency, inactive:
Cc1ccc(C(=O)NNC(=O)c2ccoc2C)s1
COc1cccc(NC(=O)Cn2c(=O)n(-c3ccc(C)cc3)c(=O)c3ccc(C(=O)NCc4ccco4)cc32)c1
O=C(CSc1ncccn1)NC(=O)NCc1ccco1
CCN(CC)S(=O)(=O)c1ccc2oc(C(=O)N(C)Cc3ccccc3)c(C)c2c1

Activity change, negative = inhibition, inactive:
COC(=O)c1ccc(N(C(=O)CNC(=O)c2ccco2)C(C(=O)NC2CCCC2)c2ccco2)cc1 (stereo not given) -10.7% [at 11.4 µM]
